Results: the supplement of paper PMC12217912
The list shows a part of the results. The full chains were built here from the parent and the listed change. Values near 0.05 are background.

B1: TEV protease; numbered along this chain (parent)
chain: MGESLFKGPRDYNPISSSICHLTNESDGHTTSLYGIGFGPFIITNKHLFRRNNGTLVVQSLHGVFKVKDTTTLQQHLVDGRDMIIIRMPKDFPPFPQKLKFREPQREERICLVTTNFQTKSMSSMVSDTSCTFPSGDGIFWKHWIQTKDGQCGSPLVSTRDGFIVGIHSASNFTNTNNYFTSVPKNFMELLTNQEAQQWVSGWRLNADSVLWGGHKVFMVKPEEPFQPVKEATQL

Variants of: B1
Assay: raw area under fraction-flipped curve 0-4 h after induction (AUC4h, not background-subtracted), DNA-recorder readout of cleavage of the substrate (dimensionless); higher = more cleavage of the substrate by the protease variant
Conditions: temperature: 34 °C; time window: 0-4 h after rhamnose induction
Procedure: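 In vivo DNA recorder in E. coli TOP10(DE3) ΔrhaA at 34 °C. Each TEVp single-site mutant (parent TEVp 0) is paired with a single-site variant of the 7-mer TEVs (canonical ENLYFQ|S). The substrate sits between flexible linkers in a Bxb1-sfGFP-TEVs-SsrA fusion, so cleavage stabilises Bxb1 and speeds flipping of a recombination array, read by NGS. The value is the raw area under the fraction-flipped curve over 0-4 h after rhamnose induction (AUC4h), with ≥20 reads per time point. It is not background-subtracted; inactive controls average about 0.047.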
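Further: Bxb1 expression induced with 0.2% (w/v) L-rhamnose at OD600 near 0.5, cultures sampled hourly, flipped fraction per protease–substrate barcode pair counted by paired-end Illumina sequencing.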

Variant	area with substrate ENAYFQS	area with substrate ENCYFQS	area with substrate ENDYFQS	area with substrate ENEYFQS	area with substrate ENHYFQS	area with substrate ENIYFQS	area with substrate ENKYFQS	area with substrate ENNYFQS	area with substrate ENPYFQS	area with substrate ENQYFQS	area with substrate ENRYFQS	area with substrate ENSYFQS	area with substrate ENVYFQS	area with substrate ENGYFQS	area with substrate ENMYFQS	area with substrate ENWYFQS	area with substrate ENFYFQS	area with substrate ENYYFQS	area with substrate ENTYFQS
MGESLFKGPRDYNPISSSICHLTNESDGHTTSLYGIGFGPFIITNKNLFRRNNGTLVVQSLHGVFKVKDTTTLQQHLVDGRDMIIIRMPKDFPPFPQKLKFREPQREERICLVTTNFQTKSMSSMVSDTSCTFPSGDGIFWKHWIQTKDGQCGSPLVSTRDGFIVGIHSASNFTNTNNYFTSVPKNFMELLTNQEAQQWVSGWRLNADSVLWGGHKVFMVKPEEPFQPVKEATQL [H47N]	0.0626	0.0643	0.0609	0.0696	0.0569	0.069	0.0576	0.0522	0.0724	0.0823	0.0634	0.052	0.0604	–	–	–	–	–	–
MGESLFKGPRDYNPISSSICHLTNESDGHTTSLYGVGFGPFIITNKHLFRRNNGTLVVQSLHGVFKVKDTTTLQQHLVDGRDMIIIRMPKDFPPFPQKLKFREPQREERICLVTTNFQTKSMSSMVSDTSCTFPSGDGIFWKHWIQTKDGQCGSPLVSTRDGFIVGIHSASNFTNTNNYFTSVPKNFMELLTNQEAQQWVSGWRLNADSVLWGGHKVFMVKPEEPFQPVKEATQL [I36V]	0.045	0.0544	0.0618	0.0597	–	–	0.0571	–	–	0.0609	0.0545	0.0542	–	0.053	0.0739	0.0575	–	–	–
MGESLFKGPRDYNPISSSICHLTNESDGHTTSLYGRGFGPFIITNKHLFRRNNGTLVVQSLHGVFKVKDTTTLQQHLVDGRDMIIIRMPKDFPPFPQKLKFREPQREERICLVTTNFQTKSMSSMVSDTSCTFPSGDGIFWKHWIQTKDGQCGSPLVSTRDGFIVGIHSASNFTNTNNYFTSVPKNFMELLTNQEAQQWVSGWRLNADSVLWGGHKVFMVKPEEPFQPVKEATQL [I36R]	0.0496	0.0402	0.0539	0.0475	0.0501	0.0545	–	0.039	–	0.0366	0.0437	0.0369	0.0406	–	–	–	0.0437	0.0462	–
MGESLFKGPRDYNPISSSICHLTNESDGHTTSLYGIGFGPFIIDNKHLFRRNNGTLVVQSLHGVFKVKDTTTLQQHLVDGRDMIIIRMPKDFPPFPQKLKFREPQREERICLVTTNFQTKSMSSMVSDTSCTFPSGDGIFWKHWIQTKDGQCGSPLVSTRDGFIVGIHSASNFTNTNNYFTSVPKNFMELLTNQEAQQWVSGWRLNADSVLWGGHKVFMVKPEEPFQPVKEATQL [T44D]	0.0512	0.0446	0.0264	0.0351	0.0348	0.0578	0.0455	–	0.0469	0.0437	0.0354	0.07	0.0541	–	0.0332	0.0391	0.0487	–	0.0574
MGESLFKGPRDYNPISSSICHLTNESDGHTTSLYGIGFGPFIIWNKHLFRRNNGTLVVQSLHGVFKVKDTTTLQQHLVDGRDMIIIRMPKDFPPFPQKLKFREPQREERICLVTTNFQTKSMSSMVSDTSCTFPSGDGIFWKHWIQTKDGQCGSPLVSTRDGFIVGIHSASNFTNTNNYFTSVPKNFMELLTNQEAQQWVSGWRLNADSVLWGGHKVFMVKPEEPFQPVKEATQL [T44W]	0.0376	0.0487	0.0489	0.0547	–	–	0.0464	0.039	0.0395	–	0.0708	0.0462	0.0483	0.0315	0.0378	0.0431	0.0544	0.0663	0.0879
MGESLFKGPRDYNPISSSICHLTNESDGHTTSLYGIGFGPFIITVKHLFRRNNGTLVVQSLHGVFKVKDTTTLQQHLVDGRDMIIIRMPKDFPPFPQKLKFREPQREERICLVTTNFQTKSMSSMVSDTSCTFPSGDGIFWKHWIQTKDGQCGSPLVSTRDGFIVGIHSASNFTNTNNYFTSVPKNFMELLTNQEAQQWVSGWRLNADSVLWGGHKVFMVKPEEPFQPVKEATQL [N45V]	0.0544	0.0585	0.0588	0.0631	0.0479	0.0595	–	0.0585	0.0508	0.0591	0.055	0.0661	0.0669	0.0559	–	0.059	0.0552	0.0409	0.0658
MGESLFKGPRDYNPISSSICHLTNESDGHTTSLYGIGFGPFIITIKHLFRRNNGTLVVQSLHGVFKVKDTTTLQQHLVDGRDMIIIRMPKDFPPFPQKLKFREPQREERICLVTTNFQTKSMSSMVSDTSCTFPSGDGIFWKHWIQTKDGQCGSPLVSTRDGFIVGIHSASNFTNTNNYFTSVPKNFMELLTNQEAQQWVSGWRLNADSVLWGGHKVFMVKPEEPFQPVKEATQL [N45I]	0.0541	0.0613	0.0609	0.0673	0.0626	–	0.0509	0.0568	0.0506	0.0508	0.0568	0.0622	0.0513	–	0.0649	0.0536	0.0625	–	0.0634
MGESLFKGPRDYNPISSSICHLTNESDGHTTSLYGIGFGPFIITHKHLFRRNNGTLVVQSLHGVFKVKDTTTLQQHLVDGRDMIIIRMPKDFPPFPQKLKFREPQREERICLVTTNFQTKSMSSMVSDTSCTFPSGDGIFWKHWIQTKDGQCGSPLVSTRDGFIVGIHSASNFTNTNNYFTSVPKNFMELLTNQEAQQWVSGWRLNADSVLWGGHKVFMVKPEEPFQPVKEATQL [N45H]	0.0659	0.0616	0.0507	0.0613	–	0.0646	–	0.0691	–	0.0606	0.0485	0.062	0.0715	0.0771	0.0618	0.0114	0.0921	–	0.0535
MGESLFKGPRDYNPISSSICHLTNESDGHTTSLYGIPFGPFIITNKHLFRRNNGTLVVQSLHGVFKVKDTTTLQQHLVDGRDMIIIRMPKDFPPFPQKLKFREPQREERICLVTTNFQTKSMSSMVSDTSCTFPSGDGIFWKHWIQTKDGQCGSPLVSTRDGFIVGIHSASNFTNTNNYFTSVPKNFMELLTNQEAQQWVSGWRLNADSVLWGGHKVFMVKPEEPFQPVKEATQL [G37P]	0.0491	0.0484	0.0392	0.0489	–	0.0516	–	0.0418	0.0444	0.044	0.0402	0.06	0.044	–	–	–	–	0.0853	0.0529
